Laboratory results from publication PMC4336329 (PLoS ONE, 2015).
Out of some 310,000 compounds screened, about 2,200 (0.71%) showed an effect of 50% or more. The effect is printed as a negative number. This is one part of the list.

These compounds were tested against human ether-à-go-go-related gene (hERG) potassium channel (human, UniProt Q12809) (assay: primary screen, population patch clamp on CHO cells stably expressing hERG).
Chain of human ether-à-go-go-related gene (hERG) potassium channel (Q12809 whole entry, looked up): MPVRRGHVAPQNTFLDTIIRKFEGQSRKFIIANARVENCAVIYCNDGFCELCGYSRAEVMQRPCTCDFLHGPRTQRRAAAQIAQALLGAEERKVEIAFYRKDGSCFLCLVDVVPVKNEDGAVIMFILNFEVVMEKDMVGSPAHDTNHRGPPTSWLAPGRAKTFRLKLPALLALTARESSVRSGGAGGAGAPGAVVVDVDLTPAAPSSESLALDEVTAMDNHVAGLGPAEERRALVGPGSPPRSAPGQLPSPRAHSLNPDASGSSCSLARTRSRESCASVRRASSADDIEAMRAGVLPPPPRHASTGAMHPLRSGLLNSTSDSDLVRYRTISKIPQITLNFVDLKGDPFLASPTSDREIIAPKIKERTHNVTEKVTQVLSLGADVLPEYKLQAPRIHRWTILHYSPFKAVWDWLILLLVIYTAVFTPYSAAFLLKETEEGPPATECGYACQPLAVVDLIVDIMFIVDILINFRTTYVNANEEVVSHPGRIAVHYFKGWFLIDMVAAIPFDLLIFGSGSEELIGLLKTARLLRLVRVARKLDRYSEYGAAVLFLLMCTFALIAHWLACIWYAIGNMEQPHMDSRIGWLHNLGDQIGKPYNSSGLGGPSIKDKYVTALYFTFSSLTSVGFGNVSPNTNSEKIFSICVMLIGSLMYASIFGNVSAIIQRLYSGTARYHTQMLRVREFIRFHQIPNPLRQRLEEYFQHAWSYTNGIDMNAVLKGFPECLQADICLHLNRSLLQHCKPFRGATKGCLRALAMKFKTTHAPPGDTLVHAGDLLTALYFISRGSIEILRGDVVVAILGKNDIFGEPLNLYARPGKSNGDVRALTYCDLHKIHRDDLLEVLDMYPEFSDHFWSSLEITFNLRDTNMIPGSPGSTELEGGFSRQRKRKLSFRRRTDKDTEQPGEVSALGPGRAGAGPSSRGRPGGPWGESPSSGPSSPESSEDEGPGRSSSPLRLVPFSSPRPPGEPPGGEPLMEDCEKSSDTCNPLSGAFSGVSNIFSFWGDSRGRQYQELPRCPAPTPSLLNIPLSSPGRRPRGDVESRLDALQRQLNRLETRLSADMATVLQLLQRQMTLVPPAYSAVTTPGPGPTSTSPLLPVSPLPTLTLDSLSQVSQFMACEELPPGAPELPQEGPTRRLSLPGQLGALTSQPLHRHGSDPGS

| Structure (SMILES) | hERG current change (%, negative = inhibition) at 1uM [%] |
| --- | --- |
| CCOc1cc(/C=N/NC(N)=S)cc(Br)c1OCc1ccccc1C | 15.3 |
| O=C(CCC1CCCN(C(=O)c2cccnc2)C1)NCc1ccccc1F (stereo not shown) | 2.53 |
| C/C=C(\C)C(=O)Nc1cccc(C2=NOC3(C2)C[C@H](C(N)=O)N(C(=O)c2cc([N+](=O)[O-])cc([N+](=O)[O-])c2)C3)c1 (stereo partly shown) | 6.85 |
| CC1(C)CC(=O)C(C(=O)Cc2ccccc2[N+](=O)[O-])C(=O)C1 | 20.4 |
| O=C(CC1NCCNC1=O)Nc1ccc(Cl)c(Cl)c1 (stereo not shown) | 7.1 |
| Nc1nc(C2CCCCC2)cs1 | 2.04 |
| CCc1nnc(NC(=O)CSc2nnc(-c3ccccc3OC)n2-c2ccc(C)cc2)s1 | 7.53 |
| Cc1ccccc1C(=O)Nc1nnc(S(=O)(=O)N2CCCCC2)s1 | 0.543 |
| COCCCNCCOc1cc(C(C)C)ccc1C | 11.1 |
| Cc1nn(-c2ccc(N3CCCCC3)nn2)c(C)c1CCC(=O)Nc1ccccc1F | 7.01 |
| COC(c1ccccc1)c1nnc(CCC(=O)N(C)CCCC2CCCC2)o1 (stereo not shown) | 0.616 |
| Cc1onc(-c2c(F)cccc2Cl)c1C(=O)Nc1nnc(C2CC2)s1 | 7.17 |
| COc1ccc(S(=O)(=O)N/N=C\c2ccc3c(c2)OCO3)c(OC)c1 | 12.7 |
| COc1ccccc1CC(=O)Nc1cccc(S(=O)(=O)N2CCOCC2)c1 | 10.6 |
| COC(=O)c1cc2c(C)c(C)c3ccccn3c-2c1C(=O)OC | 12.9 |
| O=C(Cn1nnc(-c2ccccc2)n1)N1CCCCC1 | 11.8 |
| COc1cccc(C2=NOC(C(=O)NCc3ccc(F)cc3)C2)c1 (stereo not shown) | -9.95 |
| CCOC(=O)COc1c(Cl)cc(C2NC(=S)NC(c3ccccc3)=C2C(C)=O)cc1OC (stereo not shown) | 4.15 |
| Fc1ccc(NC(=S)Nc2cccc3ccccc23)cc1F | 10.4 |
| Cc1ccc(C)c(-n2c(SCC(=O)NCC3CCCO3)nnc2-c2ccoc2C)c1 (stereo not shown) | 6.11 |
| CCc1ccc(C2NC(=O)c3ccccc3O2)cc1 (stereo not shown) | 2.73 |
| CC12CCC(C(=O)N(NC(=O)c3ccccc3Cl)C1=O)C2(C)C (stereo not shown) | 13.7 |
| Cc1sc2nc(SCC(=O)N(C)c3ccccc3)n(C)c(=O)c2c1C | 9.78 |
| CCN(CCO)Cc1cn[nH]c1-c1ccc(C)c(C)c1 | 12.3 |
| C1CCc2c(nc3nnnn3c2NC2CCCC2)C1 | 7.83 |
